Results as given in ChEMBL document CHEMBL4888484, “Replenishing the malaria drug discovery pipeline: Screening and hit evaluation of the MMV Hit Generation Library 1 (HGL1) against asexual blood stage Plasmodium falciparum ,using a nano luciferase reporter read-out” (2022).
Screen size: about 150,000 compounds; about 540 (0.36%) showed an effect of 50% or more. The list shows a part of the results.

Test system: Plasmodium falciparum
Experiment: Primary screen in NF54 nanoGlo assay, in single point, at 2uM, 72h; a lower Z score goes with more inhibition
Assay type: functional, Erythrocyte
Settings: timepoint 72 hour

SMILES | % Inhibition [%] | Z score
Cc1ccc(-c2ncn(C3CCCCC3)c2-c2ccc(C(=O)NCCCOC(C)C)o2)cc1 | -5 | 0.74
NC(=O)c1cnccc1N1CCCN(CCCc2ccccc2)CC1 | -7 | 0.71
N=C1CCCN1c1c(Cl)cccc1Cl | 39 | -5.71
CCn1ncc2c1CCCC2NC(C)c1nc(C2CC2)no1 (stereo not given) | -8 | 0.96
CN(C(=O)c1scc2c1CCCC2)[C@H]1COC[C@@H]1O | -9 | 1.46
Cc1noc(OCc2cccc3cccnc23)n1 | -14 | 1.94
CCOC1CC(NC(=O)CCCn2ccnc2)C12CCCC2 (stereo not given) | -17 | 1.83
Cc1nc([C@H]2CCCN2C(=O)NC2CCCc3nn(C)cc32)cs1 (stereo not given in full) | -33 | 3.93
CCn1nccc1S(=O)(=O)N1CCOc2ccc(OC)cc21 | -4 | 0.88
CC(C)c1ccc([C@H](CCO)NC(=O)c2ccc(-n3cnnc3)nc2)cc1 | -11 | 1.38
O=C(NCCc1nc(C(F)(F)F)cs1)[C@@H]1CCCN[C@@H]1C1CC1 | 11 | -1.38
COc1cccc([C@@H](C)NC(=O)c2cc(COc3ccc(F)c(F)c3)on2)c1 | -11 | 1.23
CC1(C)C(NC(=O)c2ccccc2OCC2CC2)C2CCOC21 (stereo not given) | -2 | 0.28
C[C@]1(c2nc(Cn3cc(Br)cn3)no2)CCNC(=O)C1 | 1 | -0.18
O=C(NS(=O)(=O)c1cnc2n1CCC2)c1cnn(Cc2ccccc2)c1 | -4 | 0.52
COC(=O)[C@]1(C)CN(C(C)C(=O)NCc2ccccc2)C[C@H]1C (stereo not given in full) | 4 | -0.51
O=C(Cn1c2c(c(=O)n3nc(-c4ccccc4)nc13)CCC2)Nc1ccccc1 | -3 | 0.42
CCN(C[C@H]1CCCCO1)c1nnnn1-c1ccccc1 | -2 | 0.31
O=C1NC2(CCN(S(=O)(=O)c3cccc(C(F)(F)F)c3)CC2)N=C1c1cccc(Cl)c1 | 0 | -0.03
C[C@@H](c1ccc2c(c1)CCC2)S(=O)(=O)Cc1ccn(C)n1 | 2 | -0.35
c1ccc2c(c1)CCN(Cc1csc3c1CCCC3)C2 | -9 | 0.85
CCNC(=O)CN(CC)C(=O)c1ccsc1 | -6 | 0.64

SMILES | % Inhibition [%] | Z score
CCOc1ncccc1CNC(=O)c1cccn1C | -8 | 1.5
CC(C)c1nnc(NS(=O)(=O)CC2CCCC2)s1 | -12 | 1.23
O=C(NCc1ccco1)c1ccc2c(c1)OCO2 | 40 | -4.48
CC(C)(C)OC(=O)C1CCC(C(=O)O)CN1C(=O)OC(C)(C)C (stereo not given) | -3 | 0.42
Cc1ccccc1C(CN1CCOCC1)NCC1CCCO1 (stereo not given) | -12 | 1.51
CCN1CCN(c2c(CN(CCOC)C(=O)COCc3ccccc3)c(C)nn2-c2cccc(F)c2)CC1 | 9 | -1.51
C[C@H]1CC(=O)N(Cc2nc(-c3c(F)cccc3F)cs2)C1=O | 7 | -0.71
COc1ccc(S(=O)(=O)N2CC3CN(C(=O)c4cc(C)oc4C)CC(C2)O3)cc1 | -13 | 1.15
C[C@@H]1CN(Cc2ccccc2)CCN1Cn1nc2c(cc1=O)CCC2 | -2 | 0.26
CCOC(=O)N1CCN(C(=O)C2C3C(=O)N(c4nc5cc(OC)ccc5s4)C[C@]34C=C[C@H]2O4)CC1 (stereo not given in full) | 0 | 0.05
CC(C)(C)NCCN1CCn2c1nc1ccccc12 | -12 | 1.8
C#CCN(CC#CC)C(=O)Nc1cccnc1 | -3 | 0.49
Cc1cccc(OCc2nc(CN(C(=O)c3ccccc3F)C3CC3)cs2)c1 | -3 | 0.3
C=CCC1(OCc2ccccc2)CCN(C(=O)CN2CCCC2=O)CC1 | -13 | 2.36
CCCCN1CCN(C(=O)Cc2cc(F)ccc2C)CC1=O | 1 | -0.16
C[C@@H](Cc1ccccc1)CN(CCO)c1ccccc1 | -4 | 0.47
O=C(Nc1nnc[nH]1)c1ccc2c(c1)CCCC2 | -9 | 0.86
O=C(Cn1ccc2ccccc21)N1CC[C@H](n2ccnn2)C1 | -14 | 1.81
O=C(CCc1ncc(-c2ccccc2)o1)Oc1ccc(N2CCCC2=O)cc1 | 0 | 0
Cc1[nH]c(C)c(S(=O)(=O)NCc2ccco2)c1-c1nnc(C2CCC2)o1 | -20 | 3.95
Cc1ccc2c(c1)CC[C@@H](C(=O)Nc1cc(C)cn(C)c1=O)O2 | -7 | 1.12
O=C(Nc1nc2c(s1)CN(C(=O)c1cc(-c3ccc(F)cc3)n[nH]1)CC2)c1ccco1 | -17 | 2.74

SMILES | % Inhibition [%] | Z score
CCOC(=O)N1CCC(NC(=O)[C@H]2CC23CCN(Cc2ccc(OC)c(OC)c2Cl)CC3)CC1 | -6 | 0.77
C#Cc1cccc(NCc2cc(=O)n3ccccc3n2)c1 | -11 | 1.84
COC[C@@]12CN(C(C)=O)CC[C@@H]1CN(S(=O)(=O)c1ccccc1F)C2 | -7 | 0.8
CN(C)c1ccc(NC(=O)c2cccs2)cc1CN(CC1CC1)C(=O)c1cccs1 | 11 | -1.28
CC(=O)Nc1ccc(C(=O)OC(C)C)cc1 | 7 | -0.98
CC1CN(C(=O)CCC(O)c2ccc3c(c2)CCC(=O)N3)CC(C)O1 (stereo not given) | -7 | 0.78
O=C(O)[C@H]1CN(Cc2ccc3occc3c2)C[C@@H]1c1ccccn1 | -10 | 1.33
O=C(NC(C1CC1)C1CC1)c1cc(C2CC2)on1 | 2 | -0.22
O=C(Nc1nc(C2CC2)cs1)N1CCCC1 | -15 | 1.82
Cc1c(CN(C)C(=O)NC[C@H]2CCOC(C)(C)C2)cnn1C | 3 | -0.35
Cc1nc(CNC(=O)[C@H]2CCCN(Cc3ccco3)C2)sc1C | -6 | 0.71
Cc1nonc1CNC(=O)C1(N2CCOCC2)CCCCC1 | -5 | 0.66
CN(C)c1ccc(S(=O)(=O)Nc2ccc(C(C)(C)C(=O)O)cc2)cc1 | 2 | -0.29
Cc1nc(C)c(C(=O)N2CCC3(CCC(=O)N(CC4CC4)C3)CC2)o1 | -10 | 0.9
Cc1cccc(N2CCN(C(=O)CN3CCN(Cc4ccc(Cl)cc4)C3=O)C[C@@H]2C)c1 | 39 | -5.19
C[C@@H](CCNC(=O)N(C)Cc1nc2ccc(F)cc2[nH]1)N1CCN(C)CC1 | -14 | 2.61
COc1ccc(C(=O)Nc2cc(C(C)C)c(O)c(S(=O)(=O)c3ccccc3)c2C)cc1 | -4 | 0.51
O=S(=O)(C[n+]1sc(N(c2ccccc2)c2ccccc2)nc1-c1ccccc1)c1ccccc1 | 4 | -0.67
CCOCC1CCN(Cc2cc(C#N)c(C)[nH]2)CC1 | -5 | 0.64
C[C@@]1(C(=O)NCc2ccc(F)cc2)Cn2cnc(C(=O)NC3CC3)c2C(=O)N1C1CC1 | -2 | 0.21
CC#CCNC(=O)Nc1ccc(C(C)(C)C#N)cc1 | -5 | 0.43
CCc1ccc(C(=O)NCC2(COC)CCC2)s1 | -5 | 0.7

SMILES | % Inhibition [%] | Z score
c1nc2ccc(-c3ccc4c(c3)OCO4)cc2[nH]1 | 2 | -0.29
Cc1ccc(-c2noc(-c3ccc(N4CCN(Cc5ccc6c(c5)OCO6)CC4)nc3)n2)cc1 | -5 | 0.57
C=C(C)CN(CC)C(=O)C1(N2CCN(CC)CC2)Cc2ccccc2C1 | -8 | 1.1
O=C(Nc1cc(C2CCCC2)[nH]n1)c1ccn(CCn2cccn2)n1 | 9 | -1.43
COc1cc(F)c([C@@H]2c3nc[nH]c3CCN2Cc2nccn2C)cc1OC | -7 | 1.29
O=C(Nc1ccc(Cl)cn1)C(F)(F)OC(F)(F)C(F)(F)OC(F)(F)C(F)(F)OC(F)(F)F | 30 | -3.85
CCc1nc(-c2ccc(NC(=O)C(C)C)cc2)n(C)n1 | -13 | 2.09
COCCn1c(=O)c2c(ncn2Cc2cccc(C#N)c2)n(-c2ccccc2OC)c1=O | -17 | 1.51
Nc1ccc(S(=O)(=O)N2CCC[C@H](n3cccn3)C2)cc1 | -17 | 1.75
CCCN(CCC)C(=O)c1ccccc1Br | -5 | 0.99
CN(CC1CC1)S(=O)(=O)NCCc1ccccc1C(F)(F)F | -2 | 0.28
CCC(C)(C)CN1CCC(OC(C)(C)C)CC1 | 1 | -0.14
CC(C)[C@H]1C[C@@H]1NC(=O)N1CCNC(=O)CC1 | -7 | 1.08
COc1ccc(CCC(=O)Nc2cnc(-c3ccc(C)cc3)nc2)cc1 | -22 | 3.47
Cc1nnc(CCNc2ccnc(C(=O)NCc3ccncc3)c2)s1 | -4 | 0.64
CCNC(=O)[C@@H]1C[C@@H](N)CN1C(=O)CCCC1CCCCC1 | 13 | -1.72
C=C(C)CN(CC)c1nnnn1CC1CC2CCC(C1)S2(=O)=O (stereo not given) | 2 | -0.15
CCN1CCN(C(=O)[C@H](C)N(C)Cc2cnccn2)CC1 | -19 | 1.99
CCOC(=O)CCNCc1cccnc1 | 2 | -0.24
